According to the supplement of paper PMC7826260:
This is one part of the list. The data describe in vitro nicking of single-stranded DNA by Rep domains (3 µM enzyme, 1 h, 37 °C); shown is the middle of each 90-letter strand. Numbers give uncut DNA relative to the enzyme-free pool, as log2; strong cutting gives strongly negative numbers. There is no active / inactive call. Because reads are shares of a total, they shift together; values above 0 arise when much of the pool is cut.

Key:
Assay in all cases: uncleaved DNA left, log2 of reads against the no-enzyme library (log2 ratio); higher = less cleavage (more negative = more Rep cleavage of the k-mer); sequences stand for … in CTCGTCCG…ACCGGAGA
[1] = test system: T1, Rep nickase domain of Muscovy duck circovirus
T1 sequence (residues 1-111 of Rep, tag left off): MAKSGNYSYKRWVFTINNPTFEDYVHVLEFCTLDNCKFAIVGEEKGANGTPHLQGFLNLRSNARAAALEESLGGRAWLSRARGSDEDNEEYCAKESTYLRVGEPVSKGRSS
Method: (§1)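 A pool of 90-nt single-stranded DNAs with seven random bases just before the constant AC of the nick site (name = the seven bases) was cut by 3 µM recombinant His6-SUMO-tagged Rep nickase domain (300 nM DNA, 50 mM HEPES pH 8.0, 50 mM NaCl, 1 mM MnCl2, 1 h, 37 °C, three replicates). Uncut DNA was amplified and sequenced.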

[2] = test system: T2, Rep nickase domain of banana bunchy top virus
T2 sequence (residues 1-94 of Rep, tag left off): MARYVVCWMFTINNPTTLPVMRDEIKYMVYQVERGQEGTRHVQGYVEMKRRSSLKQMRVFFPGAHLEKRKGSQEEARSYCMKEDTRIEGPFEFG
Method: as §1

[3] = test system: T3, Rep nickase domain of cabbage leaf curl virus
T3 sequence (residues 1-116 of Rep, tag left off): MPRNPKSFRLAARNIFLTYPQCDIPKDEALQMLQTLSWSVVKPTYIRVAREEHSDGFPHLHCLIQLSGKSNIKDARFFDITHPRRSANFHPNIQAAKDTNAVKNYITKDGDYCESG
Method: as §1

[4] = test system: T4, Rep nickase domain of chickpea chlorotic dwarf virus
T4 sequence (residues 1-124 of Rep, tag left off): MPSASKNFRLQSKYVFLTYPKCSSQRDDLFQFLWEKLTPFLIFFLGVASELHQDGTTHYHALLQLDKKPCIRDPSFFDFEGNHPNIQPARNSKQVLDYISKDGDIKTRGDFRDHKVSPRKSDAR
Method: as §1

[5] = test system: T5, Rep nickase domain of faba bean necrotic yellows virus
T5 sequence (residues 1-98 of Rep, tag left off): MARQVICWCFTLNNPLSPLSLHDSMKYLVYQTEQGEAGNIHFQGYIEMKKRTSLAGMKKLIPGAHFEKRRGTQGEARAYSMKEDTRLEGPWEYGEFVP
Method: as §1

[6] = test system: T6, Rep nickase domain of maize striate mosaic virus
T6 sequence (residues 1-117 of Rep, tag left off): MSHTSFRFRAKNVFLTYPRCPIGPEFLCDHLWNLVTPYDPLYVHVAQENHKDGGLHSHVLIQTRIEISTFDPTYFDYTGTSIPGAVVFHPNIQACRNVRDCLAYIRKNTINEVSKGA
Method: as §1

[7] = test system: T7, Rep nickase domain of porcine circovirus 2
T7 sequence (residues 2-116 of Rep, tag left off): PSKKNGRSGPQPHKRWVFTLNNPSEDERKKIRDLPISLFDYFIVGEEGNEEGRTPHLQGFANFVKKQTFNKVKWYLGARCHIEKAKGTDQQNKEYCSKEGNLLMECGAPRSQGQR
Method: as §1

[8] = test system: T8, Rep nickase domain of tomato golden mosaic virus
T8 sequence (residues 1-124 of Rep, tag left off): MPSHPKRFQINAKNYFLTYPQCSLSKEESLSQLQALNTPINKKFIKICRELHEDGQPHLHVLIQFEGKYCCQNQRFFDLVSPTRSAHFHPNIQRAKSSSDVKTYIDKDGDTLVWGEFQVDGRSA
Method: as §1

[9] = test system: T9, Rep nickase domain of tomato yellow leaf curl virus
T9 sequence (residues 1-136 of Rep, tag left off): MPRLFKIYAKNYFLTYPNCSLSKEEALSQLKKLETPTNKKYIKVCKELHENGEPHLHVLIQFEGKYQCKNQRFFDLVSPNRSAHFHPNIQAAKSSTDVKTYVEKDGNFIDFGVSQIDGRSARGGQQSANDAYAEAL
Method: as §1

[10] = test system: T10, Rep nickase domain of wheat dwarf virus
T10 sequence (residues 1-137 of Rep, tag left off): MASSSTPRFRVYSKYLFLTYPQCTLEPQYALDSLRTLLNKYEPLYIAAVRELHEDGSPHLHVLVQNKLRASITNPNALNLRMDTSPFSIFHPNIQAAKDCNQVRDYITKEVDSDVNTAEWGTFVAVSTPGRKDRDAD
Method: as §1

Row | Sequence | uncleaved DNA left (log2) [1] | uncleaved DNA left (log2) [2] | uncleaved DNA left (log2) [3] | uncleaved DNA left (log2) [4] | uncleaved DNA left (log2) [5] | uncleaved DNA left (log2) [6] | uncleaved DNA left (log2) [7] | uncleaved DNA left (log2) [8] | uncleaved DNA left (log2) [9] | uncleaved DNA left (log2) [10]
1 | GGGACTA | 0.00435 | 0.117 | 0.869 | 2.14 | -0.0464 | 2.33 | 0.18 | 0.0391 | -0.0533 | 0.178
2 | AAGGTTG | 0.101 | 0.00146 | 0.116 | 1.01 | 0.0894 | 0.771 | 0.214 | 0.129 | 0.00641 | 0.0129
3 | CGACTTC | 0.0508 | 0.0288 | 0.16 | 0.58 | 0.0477 | 1.06 | 0.175 | -0.0894 | 0.125 | 0.0933
4 | GCTCCTA | -0.104 | -0.0421 | 0.111 | -0.0323 | -0.0583 | 0.364 | -0.173 | -0.0188 | -0.00603 | -0.0817
5 | AAGTGGG | -0.0144 | 0.0466 | -0.639 | -0.577 | 0.0814 | -1.03 | 0.0955 | 0.0629 | 0.102 | -0.0754
6 | CAGGGAT | 0.0103 | -0.0367 | 0.161 | 1.49 | -0.146 | 1.8 | 0.0455 | -0.0585 | -0.223 | -0.0393
7 | CAGATCC | 0.0592 | 0.00326 | 0.0561 | 0.0848 | -0.0903 | 0.0902 | -0.0246 | -0.0872 | 0.000723 | 0.0185
8 | ATATGGA | 0.0486 | -0.0951 | 0.0173 | 0.198 | 0.0634 | -0.217 | 0.0547 | -0.00162 | -0.0435 | 0.12
9 | AACAAGA | -0.0326 | -0.0406 | -0.0766 | -0.363 | -0.0825 | -0.949 | 0.166 | -0.0276 | -0.0708 | -0.078
10 | CGTCAAC | 0.0498 | -0.061 | 0.000365 | -0.792 | -0.146 | -0.164 | -0.114 | -0.0913 | 0.0611 | 0.0663
11 | AACCCGA | -0.0383 | -0.11 | 0.127 | 0.194 | 0.0214 | -0.595 | -0.266 | -0.195 | -0.152 | -0.0458
12 | AAATCGG | 0.0256 | 0.0606 | 0.385 | 1.42 | -0.0137 | 1.49 | 0.0858 | 0.0766 | -0.0591 | -0.00949
13 | GGGTCAT | 0.0506 | 0.243 | 0.929 | 2.19 | 0.0597 | 2.37 | 0.174 | 0.0574 | 0.0251 | 0.138
14 | CATTCTT | -3.52 | -3.81 | -1.24 | -2.57 | -0.909 | -0.89 | -3.74 | -0.996 | 0.0643 | -0.634
15 | AAACTTC | -0.101 | -0.127 | -0.278 | -1.34 | -0.0179 | -0.852 | -0.145 | -0.0513 | -0.103 | -0.0854
